Test results from the supplement of paper PMC4967469.
The IC50 comes from the fitted curve, where viability falls to half of the control; where the fit passes the top or lowest dose, that dose stands as a limit. For AUC the same curve is integrated over the 256-fold range of doses and scaled to a fraction; it is 1 without any effect and falls as sensitivity rises. For part of these data: An inferred top dose was calculated from the reported fits. For part of these data: An entry number marks a drug with two screens in the source, which often give different values.

Tests used:
Assay in all cases: Viability of human cancer cell lines after 72 h of drug (GDSC screen)
Zibotentan = compound: COc1nc(C)cnc1NS(=O)(=O)c1cccnc1-c1ccc(-c2nnco2)cc1 [Zibotentan]; details: top dose 20 µM; top dose inferred
Description: (§1)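 Human cancer cell lines in 384-well plates, medium with 10% serum, drug for 72 h over a 256-fold dose range (nine 2-fold or five 4-fold steps up to the top dose). Adherent lines were fixed and stained with the nucleic acid dye Syto60, suspension lines read with resazurin; signal relative to control wells, capped at 0 and 100%. One two-parameter sigmoid per drug and line, fitted in a mixed model over all curves with the slope shared within a line.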

CHIR-99021 = compound: Cc1cnc(-c2cnc(NCCNc3ccc(C#N)cn3)nc2-c2ccc(Cl)cc2Cl)[nH]1 [CHIR-99021]
Description: as §1

MPS-1-IN-1 = compound: COc1cc(N2CCC(O)CC2)ccc1Nc1cc(Nc2ccccc2S(=O)(=O)C(C)C)c2cc[nH]c2n1 [MPS-1-IN-1]; details: top dose 20 µM; top dose inferred
Description: as §1

ABT-888 = compound: C[C@]1(c2nc3c(C(N)=O)cccc3[nH]2)CCCN1 [ABT-888]; details: top dose 5 µM; top dose inferred
Description: as §1

CMK = compound: Cc1ccc(-c2c(C(=O)CCl)n(CCCO)c3ncnc(N)c23)cc1 [CMK]; details: top dose 4 µM; top dose inferred
Description: as §1

(5Z)-7-Oxozeaenol = compound: COc1cc(O)c2c(c1)/C=C/C[C@H](O)[C@H](O)C(=O)/C=C\C[C@H](C)OC2=O [(5Z)-7-Oxozeaenol]; details: top dose 10 µM; top dose inferred
Description: as §1

KU-55933 = compound: O=c1cc(-c2cccc3c2Sc2ccccc2S3)oc(N2CCOCC2)c1 [KU-55933]; details: top dose 10 µM
Description: as §1

QL-X-138 = compound: C=CC(=O)Nc1cc(-n2c(=O)ccc3cnc4ccc(-c5cn[nH]c5)cc4c32)ccc1C [QL-X-138]; details: top dose 10.24 µM; top dose inferred
Description: as §1

GSK269962A = compound: CCn1c(-c2nonc2N)nc2cnc(Oc3cccc(NC(=O)c4ccc(OCCN5CCOCC5)cc4)c3)cc21 [GSK269962A]; details: top dose inferred
Description: as §1

Thapsigargin = compound: C/C=C(/C)C(=O)O[C@H]1C(C)=C2[C@H]([C@@H]1OC(=O)CCCCCCC)[C@@](C)(OC(C)=O)C[C@H](OC(=O)CCC)[C@@]1(O)[C@H]2OC(=O)[C@@]1(C)O [Thapsigargin]; details: top dose 0.512 µM; top dose inferred
Description: as §1

CP466722 = compound: COc1cc2ncnc(-n3nc(-c4ccccn4)nc3N)c2cc1OC [CP466722]; details: top dose 16 µM; top dose inferred
Description: as §1

Cytarabine = compound: Nc1ccn([C@@H]2O[C@H](CO)[C@@H](O)[C@@H]2O)c(=O)n1 [Cytarabine]; details: top dose 2 µM
Description: as §1

ABT-869 = compound: Cc1ccc(F)c(NC(=O)Nc2ccc(-c3cccc4[nH]nc(N)c34)cc2)c1 [ABT-869]; details: top dose 1.024 µM; top dose inferred
Description: as §1

[1] = top dose 2.56 µM, screen: GDSC drug entry 154
[2] = top dose 10 µM, screen: GDSC drug entry 1241, top dose inferred
[3] = top dose 2.5 µM, screen: GDSC drug entry 127
[4] = top dose 5 µM, screen: GDSC drug entry 1192

| Cell Line | AUC (Zibotentan) | IC50 (Zibotentan) | AUC (CHIR-99021; [1]) | IC50 (CHIR-99021; [1]) | AUC (CHIR-99021; [2]) | IC50 (CHIR-99021; [2]) | AUC (MPS-1-IN-1) | IC50 (MPS-1-IN-1) | AUC (ABT-888) | IC50 (ABT-888) | AUC (CMK) | IC50 (CMK) | AUC ((5Z)-7-Oxozeaenol) | IC50 ((5Z)-7-Oxozeaenol) | AUC (KU-55933) | IC50 (KU-55933) | AUC (QL-X-138) | IC50 (QL-X-138) | AUC (GSK269962A; [3]) | IC50 (GSK269962A; [3]) | AUC (GSK269962A; [4]) | IC50 (GSK269962A; [4]) | AUC (Thapsigargin) | IC50 (Thapsigargin) | AUC (CP466722) | IC50 (CP466722) | AUC (Cytarabine) | IC50 (Cytarabine) | AUC (ABT-869) | IC50 (ABT-869) |
| --- | --- | --- | --- | --- | --- | --- | --- | --- | --- | --- | --- | --- | --- | --- | --- | --- | --- | --- | --- | --- | --- | --- | --- | --- | --- | --- | --- | --- | --- | --- |
| SH-4 (melanoma, adherent) | 0.971 | > 20 µM | 0.975 | > 2.56 µM | 0.97 | > 10 µM | 0.945 | > 20 µM | 0.971 | > 5 µM | 0.878 | > 4 µM | 0.119 | < 0.0391 µM | 0.973 | > 10 µM | 0.825 | > 10.2 µM | 0.892 | > 2.5 µM | 0.668 | 1.19 µM | 0.283 | 0.00546 µM | 0.825 | > 16 µM | 0.91 | > 2 µM | 0.96 | > 1.02 µM |
| SHP-77 (small cell lung carcinoma, semi-adherent) | 0.991 | > 20 µM | 0.991 | > 2.56 µM | 0.871 | 7.75 µM | 0.905 | > 20 µM | 0.991 | > 5 µM | 0.948 | > 4 µM | 0.816 | 4.79 µM | 0.99 | > 10 µM | 0.733 | 2.7 µM | 0.985 | > 2.5 µM | 0.959 | > 5 µM | 0.604 | 0.0596 µM | 0.931 | > 16 µM | 0.982 | > 2 µM | 0.991 | > 1.02 µM |
| SK-ES-1 (Ewing sarcoma, semi-adherent) | 0.98 | > 20 µM | 0.984 | > 2.56 µM | 0.976 | > 10 µM | 0.777 | 8.57 µM | 0.978 | > 5 µM | 0.876 | > 4 µM | 0.812 | 5.78 µM | 0.931 | > 10 µM | 0.633 | 1.53 µM | 0.985 | > 2.5 µM | 0.959 | > 5 µM | 0.175 | 0.00305 µM | 0.657 | 2.81 µM | 0.655 | 0.347 µM | 0.984 | > 1.02 µM |
| SK-MEL-1 (melanoma, suspension) | 0.992 | > 20 µM | 0.987 | > 2.56 µM | 0.982 | > 10 µM | 0.984 | > 20 µM | 0.993 | > 5 µM | 0.989 | > 4 µM | 0.546 | 0.819 µM | 0.99 | > 10 µM | 0.933 | > 10.2 µM | 0.987 | > 2.5 µM | 0.969 | > 5 µM | 0.859 | 0.336 µM | 0.9 | 15.6 µM | 0.982 | > 2 µM | 0.993 | > 1.02 µM |
| SK-MM-2 (myeloma, suspension) | 0.983 | > 20 µM | 0.949 | > 2.56 µM | 0.986 | > 10 µM | 0.707 | 4.94 µM | 0.987 | > 5 µM | 0.979 | > 4 µM | 0.826 | 6.43 µM | 0.987 | > 10 µM | 0.681 | 2.1 µM | 0.97 | > 2.5 µM | 0.951 | > 5 µM | 0.567 | 0.0491 µM | 0.698 | 3.7 µM | 0.985 | > 2 µM | 0.98 | > 1.02 µM |
| SK-N-FI (neuroblastoma, adherent) | 0.989 | > 20 µM | 0.987 | > 2.56 µM | 0.988 | > 10 µM | 0.924 | > 20 µM | 0.987 | > 5 µM | 0.892 | > 4 µM | 0.428 | 0.399 µM | 0.968 | > 10 µM | 0.893 | > 10.2 µM | 0.978 | > 2.5 µM | 0.931 | > 5 µM | 0.687 | 0.106 µM | 0.829 | 9.85 µM | 0.903 | > 2 µM | 0.989 | > 1.02 µM |
| SK-PN-DW (Ewing sarcoma, adherent) | 0.981 | > 20 µM | 0.986 | > 2.56 µM | 0.984 | > 10 µM | 0.689 | 4.33 µM | 0.933 | > 5 µM | 0.869 | 3.93 µM | 0.813 | 5.67 µM | 0.926 | > 10 µM | 0.613 | 1.32 µM | 0.955 | > 2.5 µM | 0.897 | > 5 µM | 0.286 | 0.00771 µM | 0.748 | 5.31 µM | 0.754 | 0.697 µM | 0.982 | > 1.02 µM |
| SLVL (B-cell lymphoma, suspension) | 0.97 | > 20 µM | 0.981 | > 2.56 µM | 0.945 | > 10 µM | 0.822 | 12.6 µM | 0.983 | > 5 µM | 0.828 | 2.67 µM | 0.835 | 7.12 µM | 0.972 | > 10 µM | 0.55 | 0.886 µM | 0.931 | > 2.5 µM | 0.926 | > 5 µM | 0.337 | 0.0109 µM | 0.749 | 5.46 µM | 0.983 | > 2 µM | 0.725 | 0.29 µM |
